# Assay results from PubChem BioAssay (Tox21).
# Several values for one entry are separate records, joined by “and”; a condition that tells them apart may be missing. Equal values may be shown once. The shares of active, inactive and inconclusive entries below differ from those in the screen. For part of these data: A potency beside an inconclusive call is a rough fit, not a confirmed value. Some compounds were tested as several samples or in several runs, with calls that do not always agree. Activity calls are given as the source filed them. Calls follow the shape of the dose curve; as a rule, active = well fitted curve in the direction sought with a large enough effect in the repeat runs; inconclusive = weak or mixed curves; inactive = no such curve, though single readings can be large; an effect the other way counts as inactive or inconclusive.
# Molecular target: Cytochrome P450 1A2 (Homo sapiens) (UniProt P05177)
# UniProt P05177, sequence (P05177 whole entry, looked up): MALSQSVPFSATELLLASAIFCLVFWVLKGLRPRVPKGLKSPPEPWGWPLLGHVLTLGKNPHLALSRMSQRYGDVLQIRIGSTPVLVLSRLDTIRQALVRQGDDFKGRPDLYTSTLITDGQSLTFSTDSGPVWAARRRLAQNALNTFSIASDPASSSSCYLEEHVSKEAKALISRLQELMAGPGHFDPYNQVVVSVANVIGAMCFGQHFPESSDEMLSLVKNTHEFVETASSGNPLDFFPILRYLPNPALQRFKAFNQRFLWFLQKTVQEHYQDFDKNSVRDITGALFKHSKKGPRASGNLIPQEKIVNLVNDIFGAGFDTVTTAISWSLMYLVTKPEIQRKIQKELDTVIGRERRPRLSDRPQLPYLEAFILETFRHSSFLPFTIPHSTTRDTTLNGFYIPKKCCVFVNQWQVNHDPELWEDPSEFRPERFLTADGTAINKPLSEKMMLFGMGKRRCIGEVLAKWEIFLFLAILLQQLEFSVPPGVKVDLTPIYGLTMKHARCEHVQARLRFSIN
# Experiment: Cytochrome P450 Family 1 Subfamily A Member 2 (CYP1A2) small molecule antagonists: luciferase reporter qHTS assay (AID 1671199)
# Conditions: P450-Glo CYP1A2 enzyme, luciferin luminescence, 1 h; series mostly up to 115 µM; activity change, negative = inhibition: at the top concentration
# Procedure, shortened: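 Compounds were incubated with CYP1A2 and a luminogenic proluciferin substrate for 10 min at room temperature before the reaction was started with NADPH regeneration solution. After 1 h, detection reagent was added and light output, proportional to CYP activity, was recorded.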
# % is scaled to controls: 0 for no effect and ±100 for the full control effect; potency is read from the fitted curve at half-maximal effect; tags tell the direction and shape of the fitted curve.
# Also: nearly all actives have a fitted effect of over 50% in size.
SMILES,Potency,"activity change, negative = inhibition"
CSc1nnc(C(C)(C)C)c(=O)n1N,"inconclusive: 35.2 µM [inhibitor, partial curve] and inconclusive: 39.9 µM [inhibitor, partial curve]",
O=C(O)COc1nc(Cl)c(Cl)cc1Cl,inconclusive: 72.7 µM [inhibitor],
CCCCC(CC)COC(=O)c1ccccc1C(=O)OCC(CC)CCCC (stereo unspecified),active: 33.6 µM,
Cc1cccc(C)c1NC(=O)CN1CCCC1=O,inactive,
Clc1nc(Cl)nc(Cl)n1,"inconclusive: 35.6 µM [inhibitor, full curve]",
O=[N+]([O-])c1ccccc1,"inconclusive: 65.4 µM [inhibitor, partial curve, poor fit]",
N#CN=C1SCCN1Cc1ccc(Cl)nc1,"inconclusive: 63.3 µM [inhibitor, partial curve, poor fit]",
CC(=O)/C=C/c1ccccc1,"inconclusive: 27.8 µM [inhibitor, full curve]",
CCc1cccc(CC)c1N(COC)C(=O)CCl,inconclusive: 68.7 µM [inhibitor],
C=CC(=O)OCCCCOC(=O)C=C,active: 35.6 µM,
C[C@H]1O[C@@H](O[C@H]2[C@@H](O)C[C@H](O[C@H]3[C@@H](O)C[C@H](O[C@H]4CC[C@@]5(C)[C@H](CC[C@@H]6[C@@H]5CC[C@]5(C)[C@@H](C7=CC(=O)OC7)CC[C@]65O)C4)O[C@@H]3C)O[C@@H]2C)C[C@H](O)[C@@H]1O,"inconclusive: 40.2 µM [inhibitor, partial curve] and inconclusive: 24.5 µM [inhibitor, partial curve, poor fit]",
CCCCCCC1CCOC1=O (stereo unspecified),"inconclusive: 35.6 µM [inhibitor, partial curve]",
C/C(=N\NC(=O)Nc1cc(F)cc(F)c1)c1ncccc1C(=O)O,"inconclusive: 89.4 µM [inhibitor, partial curve, poor fit] and inconclusive: 39.9 µM [inhibitor, partial curve]",
CCOC(=O)C1(c2ccccc2)CCN(CCc2ccc(N)cc2)CC1,,inactive: -5.88% [at 53 µM]
Cc1cccc(N)c1N,active: 7.7 µM and active: 14.2 µM,
Clc1ccccc1Cl,"inconclusive: 71.7 µM [inhibitor, partial curve] and inactive",

SMILES,Potency,"activity change, negative = inhibition"
FC(Cl)(Cl)C(F)(Cl)Cl,"inconclusive: 76.8 µM [inhibitor, partial curve, poor fit]",
CCCCCCCCCCCCCCn1cc[n+](C)c1,"inconclusive: 79.6 µM [inhibitor, single point]",
Nc1c(Cl)c(F)nc(OCC(=O)O)c1Cl,inconclusive: 71 µM [inhibitor],
CCC(C)(C)C(=O)OC1=C(c2ccc(Cl)cc2Cl)C(=O)OC12CCCCC2,"inconclusive: 79.6 µM [inhibitor, partial curve, poor fit]",
[O]=[Cr](=[O])([OH])[O][Cr](=[O])(=[O])[OH],inconclusive: 71.7 µM [inhibitor],
CCCCCCCCCCCCn1cc[n+](C)c1,"inconclusive: 35.9 µM [inhibitor, partial curve]",
Oc1cccc(Cl)c1,"inconclusive: 62.5 µM [inhibitor, partial curve]",
CC1CCCC1,active: 39.3 µM,
c1cc[c]([Hg][c]2ccccc2)cc1,active: 10 µM,
Nc1ccc([As](=O)(O)O)cc1,"inconclusive: 17.4 µM [inhibitor, partial curve] and inactive",
O=C(Cl)OCc1ccccc1,"inconclusive: 63.9 µM [inhibitor, partial curve]",
Cc1cc(SCc2sc(-c3ccc(C(F)(F)F)c(F)c3)nc2C)ccc1OCC(=O)O,"inconclusive: 79.6 µM [inhibitor, partial curve, poor fit]",
[CH3][Sn]([CH3])([Cl])[Cl],"inconclusive: 39.9 µM [inhibitor, partial curve]",
CC1(C)CON(Cc2ccccc2Cl)C1=O,active: 31.7 µM,
C=Cc1cccc(CCl)c1,"inconclusive: 91.7 µM [inhibitor, partial curve]",

# Molecular target: Voltage-gated inwardly rectifying potassium channel KCNH2 (Homo sapiens) (UniProt Q12809)
# UniProt Q12809, sequence (Q12809 whole entry, looked up): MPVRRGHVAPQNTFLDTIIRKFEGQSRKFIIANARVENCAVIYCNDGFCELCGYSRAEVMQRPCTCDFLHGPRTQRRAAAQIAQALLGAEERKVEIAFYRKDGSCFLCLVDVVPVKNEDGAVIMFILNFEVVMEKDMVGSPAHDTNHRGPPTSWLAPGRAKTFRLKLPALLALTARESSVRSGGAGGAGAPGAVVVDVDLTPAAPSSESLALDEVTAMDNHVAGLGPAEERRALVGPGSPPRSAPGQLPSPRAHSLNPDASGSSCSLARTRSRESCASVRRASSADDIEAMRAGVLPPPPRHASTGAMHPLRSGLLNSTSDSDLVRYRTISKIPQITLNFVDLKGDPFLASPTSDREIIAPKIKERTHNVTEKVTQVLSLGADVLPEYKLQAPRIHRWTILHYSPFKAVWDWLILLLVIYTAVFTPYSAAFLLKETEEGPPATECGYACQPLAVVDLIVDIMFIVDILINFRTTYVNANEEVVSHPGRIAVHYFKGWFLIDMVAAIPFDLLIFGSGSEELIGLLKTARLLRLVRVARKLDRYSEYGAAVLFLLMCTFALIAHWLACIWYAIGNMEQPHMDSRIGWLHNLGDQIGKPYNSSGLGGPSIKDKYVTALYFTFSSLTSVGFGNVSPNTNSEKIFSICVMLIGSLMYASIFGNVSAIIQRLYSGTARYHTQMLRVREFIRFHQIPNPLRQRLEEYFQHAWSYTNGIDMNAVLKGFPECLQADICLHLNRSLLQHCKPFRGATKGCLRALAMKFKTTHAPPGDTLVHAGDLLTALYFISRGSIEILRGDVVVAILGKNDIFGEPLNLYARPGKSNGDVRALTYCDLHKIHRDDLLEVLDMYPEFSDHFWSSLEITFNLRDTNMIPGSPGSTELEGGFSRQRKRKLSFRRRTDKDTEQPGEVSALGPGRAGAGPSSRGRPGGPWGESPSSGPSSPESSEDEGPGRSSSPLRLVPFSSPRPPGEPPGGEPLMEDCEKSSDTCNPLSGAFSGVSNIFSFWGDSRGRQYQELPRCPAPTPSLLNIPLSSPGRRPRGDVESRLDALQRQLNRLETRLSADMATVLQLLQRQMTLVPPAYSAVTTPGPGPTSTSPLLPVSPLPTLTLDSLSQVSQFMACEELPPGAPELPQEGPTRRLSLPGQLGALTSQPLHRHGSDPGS
# Experiment: Human Ether-a-go-go-Related Gene (hERG) channel small molecule antagonists: fluorescence cell-based qHTS assay (AID 1671200);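 as to activity change, negative = inhibition: hERG-expressing U2OS cells given a thallium stimulus after FluxOR II dye loading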
# Conditions: hERG-U2OS cells, FluxOR thallium flux fluorescence; series mostly up to 76.8 µM; activity change, negative = inhibition: at the top concentration
# Procedure, shortened: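 Kinetic two-minute fluorescence traces, sampled at 1 s, were collected following thallium stimulus of U2OS cells (1000 per well) that had been cultured overnight at 37 C and loaded with FluxOR II.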
row,SMILES,Potency
1,[CH3][Hg][Cl],active: 24.5 µM
2,C[C@H]1O[C@@H](O[C@H]2[C@@H](O)C[C@H](O[C@H]3[C@@H](O)C[C@H](O[C@H]4CC[C@@]5(C)[C@H](CC[C@@H]6[C@@H]5CC[C@]5(C)[C@@H](C7=CC(=O)OC7)CC[C@]65O)C4)O[C@@H]3C)O[C@@H]2C)C[C@H](O)[C@@H]1O,inactive
3,CCCCCCCCCCCCCCn1cc[n+](C)c1,active: 3.9 µM and active: 6.84 µM
4,COC(=O)c1ccccc1N,inactive
5,COC(=O)c1cc(Oc2ccc(Cl)cc2Cl)ccc1[N+](=O)[O-],active: 17.4 µM
